Source: the supplement of paper PMC11417369
This is one part of the list.

Test system: PF3D7_0420300 AP2 domain 1 (GST-tagged)
Experiment: gcPBM binding intensity (ln(normalized median fluorescence intensity)); higher = stronger DNA binding
In short: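 GST-fused DNA-binding domains of P. falciparum, expressed in E. coli, were applied at about 25 μg on average for 1 h to an Agilent 4 × 180k array of primer-extended double-stranded 36-bp intergenic genomic probes and negative controls. Binding intensity is the highest Masliner-normalised natural-log median intensity across replicate spots of either probe orientation, measured with Alexa488 anti-GST antibody and a 488 nm scan.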

Sequence	gcPBM binding intensity (ln)
AATAAATATTCATTTTGTACATATTTTTCGTATATG [XGTACX_site6104]	9.26
TTAACATCAAAATATGCACACAAACAATTAGCGGTA [CACACA_site8801]	9.63
TATATATATAAATACACACACACCCTAAAAATATAT [CACACA_site4970]	10.1
TCATATTTTACATATGCATGTTAATAATACAAACAT [TGCATGCA_site994]	9.01
TTTTTTTCGTATATTACACACTATAAATAGAAATTA [CACACA_site6278]	9.14
ATTTATTTATGTATTTGTACGTATATATTTATGCAT [XGTACX_site5218]	9.52
GTATAACAACTGATAAAAGAAAAAAAATTTATTATT [CACACA_negctrl_site377]	9.07
ATAATATTTTTAAACTGTACTTTTATAAACACTTAT [XGTACX_site2625]	9.28
ATTTTAAATATTTGTGGTACCCCTTTTTTGTAACAA [XGTACX_site5590]	9.27
CAAAATTGAAGGAACACACATACATATATATATATG [CACACA_site179]	9.6
TAAAAAAGAACAGAAACACACAAATAAAATAAAATT [CACACA_site1758]	10
CTTTGTGGTATAGATACACACTATATTAATATGAAC [CACACA_site7081]	9.31
AAATAAAAAGGGTGCACACAAAAATATATATATATA [CACACA_site1728]	9.55
ATGTTTGATGCTACACGTACACACCTTGCAAATATT [XGTACX_site1644]	9.62
TATATTATTCATTAAGCACACATTATTTTTATAATA [CACACA_site6056]	9.24
TTTTTTTTTTTTTTTACACACACAAAATATTATATG [CACACA_site2471]	9.43
TATTATTTACCTTGCTAGTTCGTTCCAAATTTTATG [XGTACX_negctrl_site197]	9.61
AAAACTATAATAAAAGGTACACATTTATTTTTTTCT [XGTACX_site730]	9.29
AAAACAAATTTTAATGAGAATATGAAAAAAAAATAT [XGTACX_negctrl_site268]	9.23

Sequence	gcPBM binding intensity (ln)
TATTCTAATATATGCATACACACAAATGTGAATATA [CACACA_site2143]	9.33
CACATTATGTATCATACACACAAATAAATATAGAAT [CACACA_site609]	9.79
TTTATATGTATTAAGTGTACACATATAATGTGTTTT [XGTACX_site4890]	9.34
AAAAAAAAAAAAAGAACATGCGACTTTAAGAACTGG [TGCATGCA_site792]	9.37
TAAAAAATTATATATTGTACGAATGCATAAAAAAAA [XGTACX_site4606]	9.25
TATGAAAATAAAATATGTACATATTTTAAATGTTAT [XGTACX_site7352]	9.18
CAAATGTGTTCTTCAGGTACAGATACACATTTATGA [XGTACX_site2664]	9.12
CACCATGTTAACAAAGCATGCATCTCTATAGTTTTA [TGCATGCA_site97]	9.26
TTCAATGCTAATTTATGTACATATGTATATAAAATA [XGTACX_site8335]	8.9
AAAATATATATTTGTTGTACAATATTAATTATTAAA [XGTACX_site1612]	8.94
CCCAAAAAAAATTTATGTACTTATTAAATATATATA [XGTACX_site6455]	9.05
TTTATATAAATTTAAGTGCAAAATGAACAAGTGAAA	9.35
TGCAAAGGTGAAAGAACACACAAAAAAAAAAAAAAA [CACACA_site4024]	8.93
AATTTTAGATTTAGCACACATTTTTTTTTTTTTTTT [CACACA_site6105]	9.17
TTTTTAATCTCATATGTATAATATATTTTTATTAAA [XGTACX_negctrl_site236]	8.96
TTCAAAGGGAAATTAACACACACATATATATATATA [CACACA_site8777]	9.53
GTAATTATTAATAAAACATGCGTATAAAATTTTCTC [TGCATGCA_site50]	9.18
TCTTTTTTTAATAAAACATGCAATATTATATATGTA [TGCATGCA_site236]	8.97
AAAAAAATATATATATATATATATATATATTTATAT [XGTACX_negctrl_site86]	8.83

Sequence	gcPBM binding intensity (ln)
AGTGACACCAAAGGGGTGCAATGAAATTAAAAATAT	9.01
TTTATTCATTTCTAAAAATATTAAAATAGAATGAAT [CACACA_negctrl_site325]	8.88
AAACAAAAAATATATACACACTAAACATAAAAAAAA [CACACA_site4185]	9.83
TAAAAAAAAATAAATGGTACACAATTAAATGTTTAT [XGTACX_site5255]	9.34
ATATACTATATATAATGTACATATATATTATTATGC [XGTACX_site2957]	9.18
ATAAGAAAATCAAAAAGTACTTTTTACAAAGATAAA [XGTACX_site824]	9.13
TAGTTTTTTATATATTGTACAAATAATATATTATAT [XGTACX_site2564]	9.19
ATTTTATGATATATTTGTACTTAACATTTGGATATA [XGTACX_site5888]	9.22
ACATATTCATATGGAAGTACGATAATGTAGTCATAT [XGTACX_site7080]	9.37
ATATATACATACAAATTAATTACGAGGAATATATTA [XGTACX_negctrl_site417]	9.36
TATATATATTTAAAGGTGCAGATGCCAGTGTATATT	9.38
AATGAACTCACGAGCACACACACACCGATATATATA [CACACA_site4710]	10
ATAAATATATTTAAATGTACATAATATATATATATA [XGTACX_site5137]	9.05
GGAACTTATTTTTATACACACATATGTGCATATTAT [CACACA_site629]	9.68
GTAAAAAAATTAAAAATTAACAAGGAATTAAGTATA [CACACA_negctrl_site1688]	9.26
TATACATATATATACACACACACATATATATATATA [CACACA_site1299]	9.95
ATCATAAATATAGCAACACACGGATTACATAAAATA [CACACA_site2796]	9.73
TTGTAATAAATAAAAGTGCAGATATGGTTCCACTAA [GTGCAC_site9942]	9.17
TTAAAAAAATAATTAACACACACATGTATATCTATA [CACACA_site9026]	9.6
